Measurements: the supplement of paper PMC3334620
The full ranking holds about 33,000 sequences; the median of “E-score (-0.5 to 0.5)” is about -0.035, and the highest 2% start at about 0.34. This is one part of the list.

Target: T1, Mot3 (UniProt P54785)
T1 sequence: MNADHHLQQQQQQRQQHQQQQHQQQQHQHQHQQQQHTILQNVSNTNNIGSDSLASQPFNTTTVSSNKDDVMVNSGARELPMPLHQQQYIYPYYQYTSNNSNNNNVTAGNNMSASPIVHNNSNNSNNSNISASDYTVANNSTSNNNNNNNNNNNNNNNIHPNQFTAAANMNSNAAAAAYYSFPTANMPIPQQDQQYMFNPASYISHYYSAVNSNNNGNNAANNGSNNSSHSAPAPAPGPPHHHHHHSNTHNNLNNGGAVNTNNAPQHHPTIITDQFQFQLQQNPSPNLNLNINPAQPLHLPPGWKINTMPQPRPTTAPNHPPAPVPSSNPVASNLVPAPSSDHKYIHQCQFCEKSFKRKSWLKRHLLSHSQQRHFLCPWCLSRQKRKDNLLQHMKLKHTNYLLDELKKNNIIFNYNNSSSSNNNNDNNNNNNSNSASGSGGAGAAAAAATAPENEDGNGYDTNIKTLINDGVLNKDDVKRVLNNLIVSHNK
Assay: PBM E-score (8-mer binding enrichment) (E-score (-0.5 to 0.5)); higher = stronger / more preferred TF binding; most listed sequences are background and not binding sites
Conditions: protein concentration: 200 nM; construct: GST-full length
Method in brief: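 E-scores (a modified Wilcoxon-Mann-Whitney statistic) were assigned by the Universal PBM Analysis Suite to every ungapped eight-base word pooled with its reverse complement. The input came from universal all-10-mer Agilent arrays made double-stranded by primer extension and probed with GST-tagged yeast transcription factors at about 100-200 nM. Fluorescent anti-GST detected bound protein, and masliner normalised the scans.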

In order of falling “PBM E-score” value:
1. CGTGTCAA  0.342
2. CTACACAC  0.333
3. GGCAAGTA  0.328
4. AATGTTAA  0.279
5. ACATGCTG  0.264
6. ACACAACC  0.255
7. AACATATA  0.251
8. ATAACAGA  0.241
9. ACACAAGA  0.237
10. CACACGCG  0.226
11. CAACGTTA  0.223
12. ACCACGTA  0.21
13. AAACTTAA  0.209
14. AGCATACA  0.207
15. CGTTAGGC  0.205
16. CTACATTA  0.196
17. AATTCACA  0.195
18. TACTGTAA  0.194
19. ACAAGCAC  0.189
20. ATGTTAGG  0.181
21. CACAAACA  0.181
22. AGTGCGTA  0.18
23. ATTTTACC  0.172
24. AACAAAAC  0.171
25. AAGTGTAG  0.158
26. ACGCAAGG  0.153
27. ATTACTAA  0.151
28. ATCAACCC  0.148
29. AACTATAT  0.147
30. ATTACGAC  0.143
31. AAAAAGTG  0.139
32. TTACTAAA  0.136
33. AATGTCTA  0.129
34. AATAAGTA  0.124
35. AACCTACT  0.124
36. ACTCTTAC  0.12
37. GTCACTAA  0.108
38. CATACCCA  0.107
39. CCTGAAAA  0.0999
40. GTGTACGA  0.0975
41. CCCGTTCC  0.0893
42. AAGATTTC  0.0869
43. GAACTAAA  0.0819
44. CTACGACA  0.0782
45. AATAAAAC  0.0769
46. CATTTGGA  0.0764
47. ATCTAATG  0.0747
48. CAAAAAGA  0.0742
49. CGAAGTGC  0.0724
50. ATTACCGC  0.0705
51. AGGCGCGA  0.0693
52. CATTTATA  0.0679
53. CAACTCGA  0.065
54. ATAGGCGG  0.0649
55. CATGATTC  0.0646
56. AGGGTTGA  0.0573
57. AGAACAAC  0.0492
58. GTATTCCA  0.0481
59. GAGGCGTA  0.0467
60. AGAACACC  0.0423
61. AATTGAAG  0.0415
62. CTATAGTA  0.0403
63. ATCTTTCA  0.0392
64. CAATACCG  0.0384
65. GAAGGATC  0.0378
66. GTCAGAAA  0.0298
67. CACGCGCA  0.0291
68. AGTAGGCG  0.0255
69. GACGCAGC  0.0247
70. ACCCCACA  0.0239
71. TGAAACCA  0.0238
72. AGTAGCTA  0.0219
73. AATAGGAG  0.0114
74. ATTTCAAA  0.0112
75. ATATCAGG  0.00966
76. TTGCAAAA  0.00474
77. GTTTGGAA  0.00293
78. AGTCTTGC  -0.00814
79. CGCGACAC  -0.0191
80. CGTGCTAG  -0.0215
81. CACCGACC  -0.029
82. CATTTCCG  -0.0295
83. ATCCTTGA  -0.0317
84. AGCTCCAA  -0.0344
85. ACCCATTC  -0.0384
86. CCCGCCAG  -0.0395
87. AGTTAGGG  -0.0425
88. ACTTCTCA  -0.0486
89. CGACACTA  -0.0502
90. CCTTATGA  -0.0503
91. CTAAGTTC  -0.0513
92. AGTCCAAC  -0.0517
93. CCTGGCAA  -0.0523
94. GCGATTAA  -0.0553
95. AGATTTGA  -0.0563
96. CATGTCCG  -0.0566
97. GGCCTCGA  -0.0581
98. CCTTCAGA  -0.0591
99. AGAGTTCA  -0.0722
100. ACCATTTG  -0.0739
101. GCGCCCTA  -0.0762
102. AAATCCTT  -0.0785
103. CGTGCAGC  -0.082
104. ATCATCTG  -0.0881
105. GACAGTGC  -0.0882
106. ATAATGGA  -0.0891
107. AATAGCTG  -0.0893
108. AGAAGCGC  -0.0935
109. AATTTCCG  -0.0949
110. CAGTAGGA  -0.095
111. CAAGCAAG  -0.102
112. AGTAGCTG  -0.103
113. CCGGTCGC  -0.104
114. ATTGTCTC  -0.105
115. CTACCTCA  -0.107
116. AGAAGTCT  -0.108
117. CTCGAATC  -0.109
118. CGAGATGC  -0.114
119. AAGGGTGC  -0.114
120. AGCGCTAG  -0.115
121. AATAAGCG  -0.116
122. CTGGTTCA  -0.121
123. CTCGGAGC  -0.121
124. AGCTTGAA  -0.122
125. CCGGACGA  -0.127
126. ATAGTGAT  -0.129
127. TAGAAAGA  -0.132
128. GGTGGGAA  -0.139
129. ACGACTGA  -0.139
130. GAATGCGA  -0.14
131. TACCGGCA  -0.145
132. TAGTCTCA  -0.15
133. GGACAGAC  -0.15
134. ACCCTCAA  -0.154
135. CTATCCAG  -0.157
136. CCTAGGCG  -0.157
137. AGACCGCA  -0.157
138. ATACTATG  -0.158
139. GACCCGTC  -0.162
140. GCCGTGGA  -0.169
141. CCTCCGCC  -0.179
142. AAGCCCTT  -0.182
143. ACTAGGAG  -0.189
144. CGCTTCCA  -0.199
145. TCAGACCA  -0.201
146. CGAGGAAG  -0.203
147. CCCGTAGC  -0.21
148. TCAAGGGA  -0.213
149. CGCCATGA  -0.215
150. GCCCAGAC  -0.216
151. CGTGAGCA  -0.223
152. CAGTCCCG  -0.225
153. ACTGCGAT  -0.227
154. AATCTTCC  -0.232
155. GGGACCCA  -0.233
156. AGGGGACG  -0.236
157. AGGGCTGG  -0.237
158. CACCGGTC  -0.244
159. GCTTCCCC  -0.245
160. CCCGGGCA  -0.252
161. GGGGGCCA  -0.252
162. GAGTCCCA  -0.261
163. GGGGTTCA  -0.262
164. ACCCAGAG  -0.269
165. GACGGGGC  -0.274
166. GGAGATCC  -0.276
167. CGGTCCGA  -0.278
168. ACCGACTG  -0.299
169. AGACCGGG  -0.307
170. GAGATTCC  -0.339
171. CGGGGGGA  -0.342
172. CCATTAGA  -0.398
